Measurements from publication PMC12040169 (PLOS Biology, 2025).
Some of the results follow.

The molecules below were run on T1, C. trachomatis L2/434/Bu expressing GFP (CTL2-GFP). Conditions: total inclusion area; 28.5 h, 10 µM; inhibitor.
T1 construct: L2/434/Bu GFP intracellular growth in HeLa cells
Set-up: species or system HeLa; C. trachomatis total inclusion area by high-content imaging, normalised to DMSO
In short: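 Post-fluorescence-read fixation, DNA staining with Hoechst and high-content imaging; GFP inclusion area and number per well, and nuclei counts, used as proxies for bacterial growth and host viability.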

Structure (SMILES) | % of control remaining
c1ccc(Nc2nc(-c3cccs3)cn3ccnc23)cc1 [CBK066513] | 75.8516
CC1CCCN(C(=S)NC2CC3CCC2C3)C1 (stereo not shown) [CBK085999] | 104.37
CCCn1c(SCC(=O)NC2CCN(CC)CC2)nc2cc(Cl)ccc21 [CBK305027] | 44.5417
COc1ccc(NC(=O)Cc2csc(NC(=O)c3ccco3)n2)c(OC)c1 [CBK287649] | 83.9115
Cc1oc(S(=O)(=O)N(C)C)cc1C(=O)O [CBK113681] | 58.7532
CCC(=O)N1CCC[C@@H]1Cn1nc(-c2cccs2)ccc1=O [CBK282304] | 100.614
Nc1cccc(-c2cc(Nc3ccc(Cl)cc3)ncn2)c1 [CBK090886] | 52.4147
CCOc1ccccc1CNc1ccc(C2c3ccsc3CCN2C(C)=O)cc1 (stereo not shown) [CBK286459] | 101.924
CCN(Cc1ccco1)C(=O)Cn1c(=O)n(C)c2ncccc21 [CBK282390] | 95.1821
COCCc1nc(-c2csc(CN(C)C)n2)n(Cc2ccccc2C)n1 [CBK306735] | 66.4238
NS(=O)(=O)c1ccc(NC(=O)CN2CCN(c3cccc(C(F)(F)F)c3)CC2)cc1 [CBK266180] | 139.816
[O-][S+](CC(O)COc1ccc(Cl)cc1)c1ccccn1 (stereo not shown) [CBK261750] | 103.418
CCCOCCCn1ccc2nc(OC)c(C#N)cc2c1=O [CBK307162] | 94.6893
COc1ccc(CCCC(=O)Nc2ccc(N3CCNCC3)nc2)cc1OC [CBK028272T] | 111.464
COc1ccnc(NC(c2cnn(C)c2)[C@H]2C[C@@H](O)C2)n1 (stereo partly shown) [CBK306617] | 56.7585
CSc1ccccc1NC(=O)CN(c1ccc(F)cc1)S(=O)(=O)c1ccc2c(c1)OCCO2 [CBK266836] | 144.624
CC(=O)N1C[C@H]2CCCN(S(=O)(=O)c3ccc(F)cc3)[C@H]2C1 [CBK285283] | 114.671
O=c1[nH]nc(SCCCOc2ccc(Cl)cc2)n1C1CC1 [CBK295597] | 77.8515
CC(C)(C)c1ccc(/C=N/NC(=O)CCSc2ccc(Cl)cc2)cc1 [CBK263696] | 104.281
O=C(NC1CCN(Cc2c(F)cccc2Cl)CC1)c1cccs1 [CBK057035] | 68.52
N#Cc1ccc(C(=O)N2CCN3C(=O)[C@H](Cc4ccc(F)cc4)NC(=O)[C@H]3C2)cc1 [CBK289602] | 102.632
COc1ccc(C(=O)N2Cc3nc[nH]c3C[C@H]2c2nc(-c3ccc(OC)cc3)no2)cc1 [CBK288966] | 85.055
